Test results as given in the RNAGym collection of RNA variant scans (doi:10.7554/elife.90254).
The source gives no read counts; variants with many changes may rest on few reads.

B1: LINE1-full (parent)
chain: UACGUAGGUGGUUUUCCCCUGAUAGUGCUAAGGGGGCCUGGAAGUUUGGACUGGGCAGAGCUCAACACAGCGUGGCAAAGUGGCUGUGGCUAGACUGCCUCUCUGGAUUCCUCGUCACUCAGCAGGGCAUCUCUGAGAGAAAUGCC

Variants of: B1
Experiment: self-cleavage, relative activity (ratio to wild type); higher = more cleavage; in vitro, sequencing; the parent is a self-cleaving ribozyme

| Variant | self-cleavage |
| --- | --- |
| UACGUAGGUGGCUUUCCUCUGAUAGUGCUAAGGGGGCCUGGAAGUUUGGACUGGGCAGAGCUCAACACAGCGUGGCAAAGUGGCCGUGGCUAGACUGCCUCUCUGGAUUCCUCGUCACUCAGCAGGGCAUCUCUGAGAGAAAUGCC [U12C C18U U85C] | 0.2 |
| UACGUAGGUGGCUUUCCCCUGAUAGUGCUAAGGGGGCCUGGAAAUUUGGACUGGGCAGAGCUCAACACAGCGUGGCAAAGUGGCUGUGGCCAGACUGCCUCUCUGGAUUCCUCGUCACUCAGCAGGGCAUCUCUGAGAGAAAUGCC [U12C G44A U91C] | 1.01 |
| UACGUAGGUGGCUUUCCCCUGAUAGUGCUAAGGGGGCCUCGAAGUUUGGACAGGGCAGAGCUCAACACAGCGAGGCAAAGUGGCUGUGGCUAGACUGCCUCUCUGGAUUCCUCGUCACUCAGCAGGGCAUCUCUGAGAGAAAUGCC [U12C G40C U52A U73A] | 1.91 |
| UACGUAGGUGGCUUUCCCCUGAUAGUGCUAAGGGGGCCUGGAAGUUUGGACUGAGCAGAGCUCAACACAGCGUGGCAAAGUGGCUGUGGCUAGACUGCCUCUCUGGAUUCCUCGUCACACAGCAGGGCAUCUCUGAGAGAGAUGCC [U12C G54A U119A A141G] | 0.96 |
| UACGUAGGUGGCUUUCCCCUGAUAGUGCUAAGGGGCCCUGGAAGUUUGGACUGGGCAGAGCUCAACACAGCGUGGCAAAGUGGCUGUGGCUAGACUGCCUCUCUGGAUUCCUCGUCGCUCAGCAGGGCAUCUCUGAGAGAAAUGCC [U12C G36C A117G] | 2.2 |
| UACGUAGGUGGCUUUCCCCUGAUAGUGCUAAGGGGGCCUGGAAGUUUGGACUGGGCAGAGCUCAACACAGCGUGGCAAAGUGGCUGUGGCUAGACUGCUUCUCCGGAUUCCUCGUCACUCAGCAGGGCAUCUCUGAGAGAAAUGCC [U12C C99U U104C] | 2.77 |
| UACGUAGGUGGCUUUCCCCUGAUAGUGCUAAGGGGGCCUGGAAGUUUGGACUGGGCAAAGCUCAACACAGCGUGACAAAGUGGCUGUGGCUAGACUGCCUCUCUGGAUUCCUCGUCACUCAGCAGGGCAUCUCUGAGAGGAAUGCC [U12C G58A G75A A140G] | 0.08 |
| UACGUAGGUGGCUUUCCCCUGAUAGUGCUAAGGGGGUCUGGGAGUUUGGGCUGGGCAGAGCUCAACACAGCGUGGCAAAGUGGCUGUGGCUAGACUGCCUCUCUGGAUUCCUCGUCACUCAGCAGGGCAUCUCUGAGAGAAAUGCC [U12C C37U A42G A50G] | 0.82 |
| UACGUAGGUGGCUUUCCCCUGAUAGUGCUAAGUGGGCCUGGAAGUUUGGACUGGGCAGAGCUCAACACAGCGUGGCAAAGUGGCUGUGGCUAGACUGCCUCUCUGGGUUCCUCGUCACUCAGCAGAGCAUCUCUGAGAGAGAUGCC [U12C G33U A107G G126A A141G] | 2.04 |
| UACGUAGGUGGCUUUCCCCUGAUAGUGCUAAGGGGGCCUGGAAGUUUGGACUGGGCAGAGCUCAACACAGCAUGGCAAAGUGGCUGUGGCUAGGCUGCCUCUCUGGAUUCCUCGCCACUCAGCAGGGCAUCUCUGAGAGAAAUGCC [U12C G72A A94G U115C] | 0.32 |
| UACGUAGGUGGCUUUCCCCUGAUAGUGCUAAGGGGGCCUGGAAGUUUGGACUGGGCAGAGGUCAACACAGCGUGGCAAAGUGGCUGUGGCUAGACUGCCUCUCUGGAUUCCUCGUCACCCAGCAGGGCAUCUCUGAGAGAAAUGCC [U12C C61G U119C] | 0 |
| UACGUAGGUGGCUUUCCCCUGAUAAUGCUAAGGGGGCCUGGAAGAUUGGACUGGGCAGAGCUUAACACAGCGUGGCAAAGUGGCUGUGGCUAGACUGCCUCCCUGGAUUCCUCGUCACUCAGCAGGGCAUCUCUGAGAGAAUUGCC [U12C G25A U45A C63U U102C A142U] | 0.26 |
| UACGUAGGUGGCUUUCCCCUGAUAGUGCUAAGGGGGCCUGGAAGUUUGGACUGGGCAGAACUCAACACAGCGUGGCAAAGUGGCUGUGGCUAGACUGCCUCCCUGGAUUCCUCGUCACUCAGCAGGGCAUCUCUGAGAGAAAUGCC [U12C G60A U102C] | 0.02 |
| UACGUAGGUGGCUUUCCCCUGAUAGUGCUAAGAGGGCCUGGAAGUUUGGACUGGGCAGAGCUCAACACGGCGUGGCAAAGUGGCUGUGGCUAGACUGCCUCUCUGGAUUCCUCGUCACUCAGCAGGGCAUCUCUGAGAGAAAUGCC [U12C G33A A69G] | 0.84 |
| UACGUAGGUGGCUUUCCCCUGAUAGUGCUAAAGGGGCCUGGAAGUCUGGACUGGGCGGAGCUCAACACAGCGUGGCAAAGUGGCUGUGGCUAGACUGCCUCUCUGGAUUCCUCGUCACUCAGCAGGGCAUCUCUGAGAGAAAUGCC [U12C G32A U46C A57G] | 0.66 |
| UACGUAGGUGGCUUUCCCCUGAUAGUGCUAAGUGGGCCUGGAAGUUUGGACUGGGCAGAGCUCAACACAGCGUGGCAAAGUGGCUGUGGCUGGACUGCCUCUCUGGAUUCCUCGUCACUCAGCAGGGCAUCUCUGAGAGAAACGCC [U12C G33U A92G U143C] | 0.2 |
| UACGUAGGUGGCUUUCCCCUGAUAGUGCUAAGGGGGCCUGGAAGUUUGGACUGGGCAGAGCUCAACACAACGUGGCAAAGUGGCUGUGGCUAGACUGCCUCUCUGGAUUCCUUGUCACUCGGCAGGGCAUCUCUGAGAGAAAUGCC [U12C G70A C113U A121G] | 0.07 |
| UACGUAGGUGGCUUUCCCCUGAUAGUGCUAAGGUGGCCUGGAAGUUUGGACUGGGCAGAGCUCAACACAGCGUGGCAAAGUGGCUGUGGCUAGACUGCCUCUCUGGAUUCCUCGUCACCCAGCAGGGCAUCUCUGAGAGAAAUGCC [U12C G34U U119C] | 0.97 |
| UACGUAGGUGGCUUUCCCCUGAUAGUGCUAAGGGGGCCUGUAAGUUUGGACUGGGCAGAGCUCAACACAGCGUGGCAAAGUGGCUGUGGCUAGACUGCCUCUCUGGAUUCCUCGUCACUCAGCAGGGCAUCUCUGGGAGAAAUGCC [U12C G41U A136G] | 1.26 |
| UACGUAGGUGGCUUUCCCCUGAUAGUGCUAAGGGGGCCUAGAAGUUUGGACUGGGCAGAGCCCAACACAGCGUGGCAAAGUGGCUGUGGCUAGACUGCCUCUCUGGAUUCCUCGUCACUCAGCAGGGCAUCUCUGAGAGAAAUGCC [U12C G40A U62C] | 0.06 |

| Variant | self-cleavage |
| --- | --- |
| UACGUAGGUGGCUUUCCCCUGAUAGUGCUAAGGGGGCCUGGAAGUUUGGAAUGGGCAGAGCUCAACACAGCGUGGCAAAGUGGCUGUGGCUAGACUGCCCCUCUGGAUUCCUCGUCACUCAGCAGGGCAUCUCUGAGAGAAAUGCC [U12C C51A U100C] | 1.73 |
| UACGUAGGUGGCUUUCCCCUGAUAGUGCUAAGGGGGCUUGGAAGUUUGGACUGGGCAGGGCUCAACACAGCGUGGCAAAGUGGCUGUGGCUAGACUGCCUCUCUGGAUUCCUCGUCACUCAGCAGGGCAUCUCUGAGAGAGAUGCC [U12C C38U A59G A141G] | 0.17 |
| UACGUAGGUGGCUUUCCCCUGAUAGUGCUAAGGGGGCCUGGAAGUUUAGACUGGGCAGAGCUCAACACAGCGUGGCGAAGUGGCUGUGGCUAGACUGCCUCUCUGGAUUCCUCGUCACUCAGCAGGGCAUCUCUGAGAGAAAUGCC [U12C G48A A77G] | 2.26 |
| UACGUAGGUGGCUUUCCCCUGAUAGUGCUAAGGGGGCCUGGAAGUUUGGACUGGGCAGAGCUCAACACAGCGUGGCAAAGUGGCUGUGGCUAGACUGUCUCUCUGGAUUCCUCGUCACCCAGCAGGGCAUCUCUGAGAGAAAUGCC [U12C C98U U119C] | 0.51 |
| UACGUAGGUGGCUUUCCCCUGAUAGUGAUAAGGGGGCCUGGAAGUUUGGACUGGGCAGAGCUCAACACAGCGUGGCAAAGUGGCUGUGGCUGGACUGCCUCUCUGGAUUCCUCGUCACUCAGCAGGGCAUCUCUGAGAGAAAUGCC [U12C C28A A92G] | 0.19 |
| UACGUAGGUGGCUUUCCCCUGAUAGUGCUAAGGGGGCCUGGAAGUUUGGACUGAGCAGAGCUCAACACAGCGUGGCAAAGUGGCUGUGGCUAGACUGCCUCUCUGGAUUCCUCGUCACUCAGCAGGGCACCUCUGAGGGAAAUGCC [U12C G54A U130C A138G] | 2.01 |
| UACGUAGGUGGCUUUCCCCUGAUAGUGCUAAGGGGGCCUGGAAGUUUGGACUGGGCAAAGCUCAACGCAGCGUGGCAAAGUGGCUGUGGCUAGACUGCCUCCCUGGAUUCCUCGUCACUCAGCAGGGCAUCUCUGAGAGAAAUGCC [U12C G58A A67G U102C] | 0 |
| UACGUAGGUGGCUUUCCCCUGAUAGUGGUAAGGGGGCCUGGAAGUUUGGACUGGGCAGAGCUCAACACAGCGUGGCAAAGUGGCUGUGGCUAGACUGCCUCUCUGGAUUCCUCGUCACCCAGCAGGGCAUCUCUGAGAGAAAUGCC [U12C C28G U119C] | 0.88 |
| UACGUAGGUGGCUUUCCCCUAAUAGUGCUAAGGGGGCCUGGAAGUUUGGACUGGGCAGAGCUCAACACAGCGUGGCAAAGUGGCUGUGGCUAGACUGCCUCUCUGGAUUCCUCGUCACUCAGCAGGGCAUCUCUGAGAGAGAUGCC [U12C G21A A141G] | 1.38 |
| UACGUAGGUGGCUUUCCCCUGAUAGUGCUAAGGGGGCCUGGAAGUUUGGACUGGGGAGAGCUCAACACAGCGUGGCAAAGUGGCUGUGGCUAGACUGCCUCUCUGGAUUCCUCGUCACUCAGCAGGGCAUCCCUGAGAGAUAUGCC [U12C C56G U132C A141U] | 0.08 |
| UACGUAGGUGGCUUUCCCUUGAUAGUGCUAAGGGGGCCUGGAAGUCUGGACUGGGCAGAGCUCAACACAGCGUGGCAAAGUGGCUGAGGCUAGACUGCCUCUCUGGAUUCCUCGUCACUCAGCAGGGCAUCUCUGAGAGAAAUGCC [U12C C19U U46C U87A] | 0.25 |
| UACGUAGGUGGCUUUCCCCUGAUAGUGCUAAGGGGGCCUGGAAGUUUGGACUGGGCAGAGCUCAACACAGCGUGGCAAAGUGGCUGUGGUUAGACUGCCUCUCUGGGUUCCUCAUCACUCAGCAGGGCAUCUCUGAGAGAAAUGCC [U12C C90U A107G G114A] | 0.02 |
| UACGUAGGUGGCUUUCCCCUGAUAGUGCUAAGGGGGCCUGGAAGUUUGGACUAGGCUGAGCUCAACACAGCGUGGCAAAGUGGCUGUGGCUAGACUGCCUCUCUGGAUUCCUCGUCACUCAGCAGGGCAUCUCUGAGAGAAAUGCC [U12C G53A A57U] | 0.09 |
| UACGUAGGUGGCUUUCCCCUGAUAGUGCUAAGGGGGCCUGGAAGUUUGGACUGGGUAGAGCUCAACACGGCGUGGCAAAGUGGCUGUGGCUAGACUGCCUCUCUGGAUUCCUCGUCGCUCAGCAGGGCACCUCUGAGAGAAAAGCC [U12C C56U A69G A117G U130C U143A] | 0.46 |
| UACGUAGGUGGCUUUCCCUCGAUAGUGCUAAGGGGGCCUGGAAGUUUGGACUGGGCAGAGCUCAACACAGCGUGGCAAAGUGGCUGUGGCUAGACUGCCUCUCUGGAUUCCUCGUCACUCAGCGGGGCAUCUCUGAGAGAAAUGCC [U12C C19U U20C A124G] | 1.41 |
| UACGUAGGUGGCUUUCCCCUGAUAGUGCUAAGGGGGCCUGGAAGUUUGGACUGGGCAGAGCUCAACACAGCGUGGCAAAGUGGCUGUGGCUAGACUGCCUUUCUGGAUUCCUCGCCACUCAGCAGGGCACCUCUGAGAGAAAUGCC [U12C C101U U115C U130C] | 2.37 |
| UACGUAGGUGGCUUUCCCCUAAUAGUGCUAAGGGGGCCUGGAAGUUUGGACUAGGCAGAGCUCAACACAGCGUGGCAAAGUGGCUGUGGCUAGACUGCCUCUCUGGAUUCCUCGUCACUCAGCAGGGCAUCUCUGAGAGAAAUGCC [U12C G21A G53A] | 1.75 |
| UACGUAGGUGGCUUUCCUCUGAUAGUGCUAAGGGGGCCUGGAAGUUUGGACUGGGCAGAGCUCAACACAGCGUGGCAAAGUGGCUGUGGCUAGACUGCCUCUCUGGAUUCCUCGUCACUCAGCAGGGCAUCUCUGAGAGAAAAGCC [U12C C18U U143A] | 0.84 |
| UACGUAGGUGGCUUUCCCCUGAUAGUGCUAAGGGGGCCUGGAAGUUUGGACUGGCCAGAGCUCAACACAGCGUGGCAAAGUGGCUGUGGCUAGACUGCCUCUCUGGAUUCCUCGUCACUCAGCAGGGCACCUCUGAGAUAAAUGCC [U12C G55C U130C G139U] | 0.22 |
